This passage reports binding signal results from paper PMC9911399, “Two distinct binding modes provide the RNA-binding protein RbFox with extraordinary sequence specificity”.

To fix the notation:
T1: RBFOX1 RRM (Homo sapiens, UniProt Q9NWB1 109-208)
T1 sequence: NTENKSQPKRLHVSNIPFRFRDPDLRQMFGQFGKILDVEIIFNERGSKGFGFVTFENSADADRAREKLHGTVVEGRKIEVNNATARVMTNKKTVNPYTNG

B1: CCGACCU (DNA:RNA)
RNA: GGGAGACCGGAAUUCAGAUUGUCCCCGACCUUUAAAUCCCGUCGUAGCCACCA
DNA 1: CAATCTGAATTCCGGTCTCCC
DNA 2: TGGTGGCTACGACGGGATT
B2: UCGAGAC (DNA:RNA)
RNA: B1 RNA with C25U, C29G, C30A, U31C
DNA 1: CAATCTGAATTCCGGTCTCCC
DNA 2: TGGTGGCTACGACGGGATT
B3: GGUAAAG (DNA:RNA)
RNA: B1 RNA with C25G, C26G, G27U, C29A, C30A, U31G
DNA 1: CAATCTGAATTCCGGTCTCCC
DNA 2: TGGTGGCTACGACGGGATT
B4: ACGUCCU (DNA:RNA)
RNA: B1 RNA with C25A, A28U
DNA 1: CAATCTGAATTCCGGTCTCCC
DNA 2: TGGTGGCTACGACGGGATT
B5: GUAAUCG (DNA:RNA)
RNA: B1 RNA with C25G, C26U, G27A, C29U, U31G
DNA 1: CAATCTGAATTCCGGTCTCCC
DNA 2: TGGTGGCTACGACGGGATT
B6: CGCACUU (DNA:RNA)
RNA: B1 RNA with C26G, G27C, C30U
DNA 1: CAATCTGAATTCCGGTCTCCC
DNA 2: TGGTGGCTACGACGGGATT
B7: GCGUCGA (DNA:RNA)
RNA: B1 RNA with C25G, A28U, C30G, U31A
DNA 1: CAATCTGAATTCCGGTCTCCC
DNA 2: TGGTGGCTACGACGGGATT
B8: AGCAUAC (DNA:RNA)
RNA: B1 RNA with C25A, C26G, G27C, C29U, C30A, U31C
DNA 1: CAATCTGAATTCCGGTCTCCC
DNA 2: TGGTGGCTACGACGGGATT
B9: GCGAGCA (DNA:RNA)
RNA: B1 RNA with C25G, C29G, U31A
DNA 1: CAATCTGAATTCCGGTCTCCC
DNA 2: TGGTGGCTACGACGGGATT
B10: CUAUCGC (DNA:RNA)
RNA: B1 RNA with C26U, G27A, A28U, C30G, U31C
DNA 1: CAATCTGAATTCCGGTCTCCC
DNA 2: TGGTGGCTACGACGGGATT
B11: CGACAGU (DNA:RNA)
RNA: B1 RNA with C26G, G27A, A28C, C29A, C30G
DNA 1: CAATCTGAATTCCGGTCTCCC
DNA 2: TGGTGGCTACGACGGGATT
B12: GCGAGUA (DNA:RNA)
RNA: B1 RNA with C25G, C29G, C30U, U31A
DNA 1: CAATCTGAATTCCGGTCTCCC
DNA 2: TGGTGGCTACGACGGGATT
B13: GACUUUC (DNA:RNA)
RNA: GGGAGACCGGAAUUCAGAUUGUCCGACUUUCUUAAAUCCCGUCGUAGCCACCA
DNA 1: CAATCTGAATTCCGGTCTCCC
DNA 2: TGGTGGCTACGACGGGATT
B14: CUCCCAG (DNA:RNA)
RNA: B1 RNA with C26U, G27C, A28C, C30A, U31G
DNA 1: CAATCTGAATTCCGGTCTCCC
DNA 2: TGGTGGCTACGACGGGATT
B15: UGGCAGG (DNA:RNA)
RNA: B1 RNA with C25U, C26G, A28C, C29A, C30G, U31G
DNA 1: CAATCTGAATTCCGGTCTCCC
DNA 2: TGGTGGCTACGACGGGATT
B16: GAGCAGU (DNA:RNA)
RNA: B1 RNA with C25G, C26A, A28C, C29A, C30G
DNA 1: CAATCTGAATTCCGGTCTCCC
DNA 2: TGGTGGCTACGACGGGATT
B17: UUCCUCG (DNA:RNA)
RNA: B13 RNA with G25U, A26U, U28C, U30C, C31G
DNA 1: CAATCTGAATTCCGGTCTCCC
DNA 2: TGGTGGCTACGACGGGATT
B18: UGGUAUG (DNA:RNA)
RNA: B13 RNA with G25U, A26G, C27G, U29A, C31G
DNA 1: CAATCTGAATTCCGGTCTCCC
DNA 2: TGGTGGCTACGACGGGATT
B19: GUGUAGG (DNA:RNA)
RNA: B13 RNA with A26U, C27G, U29A, U30G, C31G
DNA 1: CAATCTGAATTCCGGTCTCCC
DNA 2: TGGTGGCTACGACGGGATT
B20: AUGAUAG (DNA:RNA)
RNA: B1 RNA with C25A, C26U, C29U, C30A, U31G
DNA 1: CAATCTGAATTCCGGTCTCCC
DNA 2: TGGTGGCTACGACGGGATT
B21: UAGAUCG (DNA:RNA)
RNA: B1 RNA with C25U, C26A, C29U, U31G
DNA 1: CAATCTGAATTCCGGTCTCCC
DNA 2: TGGTGGCTACGACGGGATT
B22: GUGUCCC (DNA:RNA)
RNA: B1 RNA with C25G, C26U, A28U, U31C
DNA 1: CAATCTGAATTCCGGTCTCCC
DNA 2: TGGTGGCTACGACGGGATT
B23: UGCUGAC (DNA:RNA)
RNA: B13 RNA with G25U, A26G, U29G, U30A
DNA 1: CAATCTGAATTCCGGTCTCCC
DNA 2: TGGTGGCTACGACGGGATT
B24: UCGCAAC (DNA:RNA)
RNA: B1 RNA with C25U, A28C, C29A, C30A, U31C
DNA 1: CAATCTGAATTCCGGTCTCCC
DNA 2: TGGTGGCTACGACGGGATT
B25: CCGUCGU (DNA:RNA)
RNA: B1 RNA with A28U, C30G
DNA 1: CAATCTGAATTCCGGTCTCCC
DNA 2: TGGTGGCTACGACGGGATT
B26: UUCGUUG (DNA:RNA)
RNA: B13 RNA with G25U, A26U, U28G, C31G
DNA 1: CAATCTGAATTCCGGTCTCCC
DNA 2: TGGTGGCTACGACGGGATT
B27: CUACAGG (DNA:RNA)
RNA: B1 RNA with C26U, G27A, A28C, C29A, C30G, U31G
DNA 1: CAATCTGAATTCCGGTCTCCC
DNA 2: TGGTGGCTACGACGGGATT
B28: CACUGUC (DNA:RNA)
RNA: B13 RNA with G25C, U29G
DNA 1: CAATCTGAATTCCGGTCTCCC
DNA 2: TGGTGGCTACGACGGGATT
B29: ACCGAUU (DNA:RNA)
RNA: B1 RNA with C25A, G27C, A28G, C29A, C30U
DNA 1: CAATCTGAATTCCGGTCTCCC
DNA 2: TGGTGGCTACGACGGGATT
B30: GAACGUA (DNA:RNA)
RNA: B13 RNA with C27A, U28C, U29G, C31A
DNA 1: CAATCTGAATTCCGGTCTCCC
DNA 2: TGGTGGCTACGACGGGATT
B31: CAAGGGA (DNA:RNA)
RNA: B1 RNA with C26A, G27A, A28G, C29G, C30G, U31A
DNA 1: CAATCTGAATTCCGGTCTCCC
DNA 2: TGGTGGCTACGACGGGATT

Substitutions are numbered along the chain they refer to; changes in the protein carry UniProt numbers. Some of the results follow.

In the assay the target is T1, RBFOX1 RRM. Put plainly: EMSA; HiTS-Eq, 1 nM pool, 10 min; buffer printed only for the single-RNA assays: 10 mM Tris pH 7.5, 150 mM NaCl, 3.4 mM EDTA, 0.001% NP-40, 30 C. The conditions noted are these: tags: His6 N-terminal (pET28a); label: 5' 32P. The essentials: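 A pool of RNA with 7 randomized nucleotides, 5′-radiolabelled and with DNA-annealed flanks, was equilibrated at 1 nM for 10 min in 50 µL with purified RbFox RRM, wild type or mutant, across increasing protein concentrations. Free RNA was separated by 8% native PAGE, excised, reverse-transcribed, barcoded by PCR and sequenced. Relative association constants were obtained from read-count changes of each RNA species versus the control reaction and normalised to the cognate motif.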
For orientation: A gel shift assay detects complexes by their altered migration in electrophoresis.
B1: the binding signal is 0.00445 KA relative to UGCAUGU.
On to B2, for which the binding signal was 0.00506 KA relative to UGCAUGU.
Turning to B3, the binding signal was 0.00714 KA relative to UGCAUGU.
B4: the binding signal was 0.00298 KA relative to UGCAUGU.
Next, B5: 0.00865 KA relative to UGCAUGU; B6: 0.005 KA relative to UGCAUGU.
Next, B7: 0.0181 KA relative to UGCAUGU; B8: 0.0047 KA relative to UGCAUGU.
For the molecule B9, the binding signal is 0.0218 KA relative to UGCAUGU.
As to B10, the binding signal is 0.00743 KA relative to UGCAUGU.
Take B11: the binding signal was 0.00911 KA relative to UGCAUGU.
Take B12: the binding signal is 0.0128 KA relative to UGCAUGU.
B13: the binding signal was 0.0111 KA relative to UGCAUGU.
Next, B14: 0.00251 KA relative to UGCAUGU; B15: 0.0211 KA relative to UGCAUGU.
In the case of B16, the binding signal was 0.0139 KA relative to UGCAUGU.
Consider B17, for which the binding signal was 0.0136 KA relative to UGCAUGU.
On to B18, for which the binding signal was 0.0243 KA relative to UGCAUGU.
Turning to B19, the binding signal is 0.00962 KA relative to UGCAUGU.
Regarding B20, the binding signal was 0.0111 KA relative to UGCAUGU.
For B21, the binding signal was 0.0168 KA relative to UGCAUGU.
For the molecule B22, the binding signal is 0.0147 KA relative to UGCAUGU.
Turning to B23, the binding signal is 0.0249 KA relative to UGCAUGU.
Next, B24: 0.0108 KA relative to UGCAUGU.
As for B25, the binding signal was 0.00963 KA relative to UGCAUGU.
On to B26, for which the binding signal is 0.0218 KA relative to UGCAUGU.
With B27, the binding signal is 0.0105 KA relative to UGCAUGU.
Regarding B28, the binding signal is 0.00979 KA relative to UGCAUGU.
With B29, the binding signal was 0.00358 KA relative to UGCAUGU.
As to B30, the binding signal was 0.0109 KA relative to UGCAUGU.
Take B31: the binding signal was 0.00367 KA relative to UGCAUGU.
